{"source": "the supplement of paper PMC12340641", "note": "Over roughly 1,000 compounds, “relative growth recovery (pomalidomide 10 uM = 100%, DMSO = 0%)” has its median near -1.6; the highest 2% begin near 21. The list shows a part of the results.", "data": [{"test_system": "HEK293FT dCK*-IKZF1", "assay": "relative growth recovery (pomalidomide 10 uM = 100%, DMSO = 0%); higher = more growth rescue (IKZF1 fusion degradation)", "settings": "compound concentration: 5 uM; AraC concentration: 0.3 uM; overnight pretreatment + 4 days AraC", "protocol": "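Growth recovery screen of the molecular-glue-like (Specs) library. HEK293FT cells expressing a dCK*-IKZF1 fusion (primary) or dCK* alone (counter) were pretreated overnight with compound at 5 uM, then given 0.3 uM AraC for 4 days. Hoechst nuclei were counted by imaging. Primary: normalised to pomalidomide (100%) and DMSO (0%), mean of 2 replicates. Counter: normalised to no-AraC (100%) and AraC+DMSO (0%), single replicate.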", "units": {"relative growth recovery": "%"}, "values": [{"smiles": "CC(=O)Nc1ccc(Oc2ccc3c(c2)C(=O)N(c2ccc(C)cc2)C3=O)cc1", "relative growth recovery": 0.56}, {"smiles": "Cc1cc(NS(=O)(=O)c2ccc(NC(=O)COc3ccc(Cl)cc3C)cc2)nc(C)n1", "relative growth recovery": -1.09}, {"smiles": "O=C(CCCOc1ccccc1)Nc1ccc(S(=O)(=O)Nc2ncccn2)cc1", "relative growth recovery": -2.81}, {"smiles": "CCCOC(=O)Nc1ccc(S(=O)(=O)Nc2ncccn2)cc1", "relative growth recovery": 0.97}, {"smiles": "COc1cc(NS(=O)(=O)c2ccc(N3C(=O)C=CC3=O)cc2)nc(OC)n1", "relative growth recovery": -3.17}, {"smiles": "Cc1cc(CCCC(=O)N2CCCC2c2cccc(Nc3nccs3)n2)ccc1F", "note": "(stereo not drawn)", "relative growth recovery": 2.87}, {"smiles": "COC(C)(C)C(=O)N1CCCC(c2csc(Nc3ccc(C)cn3)n2)C1", "note": "(stereo not drawn)", "relative growth recovery": 15.9}, {"smiles": "O=C1CCC(N2C(=O)c3cccc(NC[C@H]4CC[C@H](C(=O)O)CC4)c3C2=O)C(=O)N1", "note": "(stereo partly drawn)", "relative growth recovery": 50.3}, {"smiles": "Cc1nc(Nc2cccc(C3CN(C(=O)c4cccc5cccnc45)CCO3)n2)sc1C", "note": "(stereo not drawn)", "relative growth recovery": 3.46}, {"smiles": "Cc1ccnc(NS(=O)(=O)c2ccc(NC(=O)CC(C)C)cc2)n1", "relative growth recovery": 1.95}, {"smiles": "O=C(COc1ccccc1Cl)Nc1ccc(S(=O)(=O)Nc2ncccn2)cc1", "relative growth recovery": 1.35}, {"smiles": "Cc1nc(Nc2cccc(C3CCCN3C(=O)CCOc3cccc(F)c3)n2)sc1C", "note": "(stereo not drawn)", "relative growth recovery": 8.19}, {"smiles": "O=C1CCC(N2C(=O)c3cc(F)c(N4CCC(Cn5cc(C(=O)O)cn5)CC4)cc3C2=O)C(=O)N1", "note": "(stereo not drawn)", "relative growth recovery": -2}, {"smiles": "Cc1ccnc(NS(=O)(=O)c2ccc(NC(=O)c3cc(Cl)ccc3Cl)cc2)n1", "relative growth recovery": 2.1}, {"smiles": "O=C(CN1CCN(CCO)CC1)N1CCC(c2cccc(Nc3ncc(-c4ccccc4)s3)n2)CC1", "relative growth recovery": -11.2}, {"smiles": "COc1ccc(-c2csc(Nc3ccc(S(=O)(=O)Nc4nc(C)cc(C)n4)cc3)n2)cc1OC", "relative growth recovery": 1.99}, {"smiles": "Cc1cnc(Nc2cccc(C3CN(C(=O)COc4cccc(F)c4)CCO3)n2)s1", "note": "(stereo not drawn)", "relative growth recovery": -0.58}, {"smiles": "Cc1ccnc(Nc2nc(-c3sc(NC(=O)c4ccccc4)nc3C)cs2)c1", "relative growth recovery": 111}, {"smiles": "CC(=O)N1CCCC1c1cccc(Nc2nccs2)n1", "note": "(stereo not drawn)", "relative growth recovery": -4.52}, {"smiles": "O=C(CCc1[nH]nc2c1CCCC2)N1CCC(c2cccc(Nc3nccs3)n2)CC1", "relative growth recovery": -17.6}, {"smiles": "NC(=O)CN1CCCCC1c1csc(Nc2ccccn2)n1", "note": "(stereo not drawn)", "relative growth recovery": 1.33}, {"smiles": "COCCOCC(=O)Nc1ccc(S(=O)(=O)Nc2cc(C)nc(C)n2)cc1", "relative growth recovery": -1.1}, {"smiles": "CC(CC(=O)Nc1ccc(S(=O)(=O)Nc2ncccn2)cc1)c1ccccc1", "note": "(stereo not drawn)", "relative growth recovery": -3.27}, {"smiles": "CCCc1cnc(Nc2cccc(C3CCN(C(=O)C4CCCCN4C(=O)CN(C)C)CC3)n2)s1", "note": "(stereo not drawn)", "relative growth recovery": -2.86}, {"smiles": "Cc1csc(Nc2cccc(C3CN(C(=O)CCc4nc(C)no4)CCO3)n2)n1", "note": "(stereo not drawn)", "relative growth recovery": 5.6}, {"smiles": "CN(C)Cc1cnc(Nc2cccc(C3CCN(C(=O)C4CCCCC4)CC3)n2)s1", "relative growth recovery": -1.89}, {"smiles": "Cc1cc(C)nc(NS(=O)(=O)c2ccc(/N=C3/NC(=O)CS3)cc2)n1", "relative growth recovery": -0.9}, {"smiles": "CCc1ccc(OCC(=O)Nc2ccc(S(=O)(=O)Nc3ccccn3)cc2)cc1", "relative growth recovery": 2.62}, {"smiles": "Cc1cnc(Nc2cccc(C3CCN(C(=O)C4C5C=CC(C5)C4C(=O)NCC(C)C)CC3)n2)s1", "note": "(stereo not drawn)", "relative growth recovery": -13.6}, {"smiles": "Cc1cc(C)c(S(=O)(=O)Nc2ccc(S(=O)(=O)Nc3ncccn3)cc2)c(C)c1", "relative growth recovery": 6.84}, {"smiles": "Cc1cc(C)nc(NS(=O)(=O)c2ccc(NC(=O)c3ncoc3-c3ccccc3)cc2)n1", "relative growth recovery": -1.47}, {"smiles": "COc1cc(NS(=O)(=O)c2ccc(NC(=O)c3ccc(OC)c(OC)c3)cc2)nc(OC)n1", "relative growth recovery": -4.05}, {"smiles": "Cc1cnc(Nc2cccc(C3CN(C(=O)CCn4cnc5ccccc54)CCO3)n2)s1", "note": "(stereo not drawn)", "relative growth recovery": 15.2}, {"smiles": "CCCc1cnc(Nc2cccc(C3CCN(C(=O)C4COCCN4)CC3)n2)s1", "note": "(stereo not drawn)", "relative growth recovery": -19.6}, {"smiles": "CCOc1ccccc1C(=O)Nc1ccc(S(=O)(=O)Nc2nccc(C)n2)cc1", "relative growth recovery": -17.9}, {"smiles": "CCCc1cnc(Nc2cccc(C3CCN(C(=O)[C@@H]4CCCCN4)CC3)n2)s1", "relative growth recovery": -14.8}, {"smiles": "CC(C)C(=O)N1CCOC(c2cccc(Nc3nccs3)n2)C1", "note": "(stereo not drawn)", "relative growth recovery": 0.125}, {"smiles": "COc1nccnc1NS(=O)(=O)c1ccc(N)cc1", "relative growth recovery": -13.6}, {"smiles": "Cc1cnc(Nc2cccc(C3CN(C(=O)CCOc4cccc(F)c4)CCO3)n2)s1", "note": "(stereo not drawn)", "relative growth recovery": 15.7}, {"smiles": "Cc1ccnc(NS(=O)(=O)c2ccc(NC(=O)c3ccco3)cc2)n1", "relative growth recovery": -0.185}, {"smiles": "CCC(=O)Nc1ccc(S(=O)(=O)Nc2ccccn2)cc1", "relative growth recovery": -4.31}, {"smiles": "O=C(/C=C/c1ccco1)N1CCC(c2cc3ccccc3c(Nc3nccs3)n2)CC1", "relative growth recovery": -19}, {"smiles": "COCCC(=O)N1CCC(c2cccc(Nc3nc(C)c(C)s3)n2)CC1", "relative growth recovery": 9.99}, {"smiles": "N#Cc1ccc(Oc2ccc(N3C(=O)c4ccc(Oc5ccccc5)cc4C3=O)cc2)cc1", "relative growth recovery": -4.37}, {"smiles": "COc1ccc2ccccc2c1/C=N/NS(=O)(=O)c1ccc(C)c([N+](=O)[O-])c1", "relative growth recovery": -4.38}, {"smiles": "Cc1nc(Nc2cccc(C3CCCN3C(=O)C(C)(C)c3cccc(F)c3)n2)sc1C", "note": "(stereo not drawn)", "relative growth recovery": -1.4}, {"smiles": "COc1cc(SC)ccc1C(=O)Nc1ccc(S(=O)(=O)Nc2nccc(C)n2)cc1", "relative growth recovery": 5.25}, {"smiles": "NC1(C(=O)N2CCC(c3cccc(Nc4ncc(-c5ccccc5)s4)n3)CC2)CC1", "relative growth recovery": -1.21}, {"smiles": "Cc1nc(Nc2cccc(C3CCN(C(=O)c4ccccn4)CC3)n2)sc1C", "relative growth recovery": 0.415}, {"smiles": "COc1cc(NS(=O)(=O)c2ccc(NC(=O)/C=C/C(=O)O)cc2)nc(OC)n1", "relative growth recovery": 5.33}, {"smiles": "O=C(Nc1ccc(S(=O)(=O)Nc2ncccn2)cc1)c1ccccc1Oc1ccccc1", "relative growth recovery": 0.03}, {"smiles": "COC1CCC(C(=O)N2CCC(c3cccc(Nc4ncc(C)s4)n3)CC2)CC1", "note": "(stereo not drawn)", "relative growth recovery": -12.6}, {"smiles": "COc1cc(NS(=O)(=O)c2ccc(N/C=C\\C(=O)c3cccs3)cc2)nc(OC)n1", "relative growth recovery": -2.01}, {"smiles": "CCOC(=O)c1ccc(N2C(=O)c3ccc(Oc4ccc(NC(C)=O)cc4)cc3C2=O)cc1", "relative growth recovery": -4.37}, {"smiles": "CC(=O)N1CCC(Cc2cccc(Nc3nccs3)n2)CC1", "relative growth recovery": -0.085}, {"smiles": "CCCc1cnc(Nc2cccc(C3CN(C(=O)Cn4c(CC(C)C)nc5ccccc54)CCO3)n2)s1", "note": "(stereo not drawn)", "relative growth recovery": -13.3}, {"smiles": "Cc1csc(Nc2cccc(C3CCN(C(=O)Cn4nc(C)cc4C)CC3)n2)n1", "relative growth recovery": 16.9}, {"smiles": "O=C(/C=C/c1cnc[nH]1)N1CCC(c2cc3ccccc3c(Nc3nccs3)n2)CC1", "relative growth recovery": -18.3}, {"smiles": "COc1ccc(/C=C(\\C#N)C(=O)Nc2ccc(S(=O)(=O)Nc3ncccn3)cc2)cc1", "relative growth recovery": -4.89}, {"smiles": "COc1cc(NS(=O)(=O)c2ccc(NC(=O)c3c(OC)cccc3OC)cc2)nc(OC)n1", "relative growth recovery": -1.76}, {"smiles": "O=C(O)c1ccc(N2C(=O)c3ccc(Oc4ccccc4)cc3C2=O)cc1", "relative growth recovery": -0.23}, {"smiles": "COc1nccnc1NS(=O)(=O)c1ccc(NC(=S)NC(=O)c2cccnc2)cc1", "relative growth recovery": -1.5}, {"smiles": "O=C(Nc1ccc(S(=O)(=O)Nc2ccccn2)cc1)c1ccc(Cl)c(Cl)c1", "relative growth recovery": -5.89}, {"smiles": "Cc1cnc(Nc2cccc(C(CO)C3CCN(C(=O)C4CCCCC4)CC3)n2)s1", "note": "(stereo not drawn)", "relative growth recovery": 0.265}, {"smiles": "COCC(=O)N1CCC(c2cccc(Nc3ncc(C)s3)n2)CC1", "relative growth recovery": -19.4}, {"smiles": "Cc1ccc2[nH]nc(C(=O)N3CCCC3c3cccc(Nc4nc(C)cs4)n3)c2c1", "note": "(stereo not drawn)", "relative growth recovery": -0.105}, {"smiles": "CC(=O)Nc1ccc(S(=O)(=O)Nc2cc(C)nc(C)n2)cc1", "relative growth recovery": -1.14}, {"smiles": "O=C(C1COCCN1)N1CCC(c2cccc(Nc3ncc(Cl)s3)n2)CC1", "note": "(stereo not drawn)", "relative growth recovery": -20.4}, {"smiles": "Cc1csc(Nc2cccc(C3CCN(CC(=O)NCc4ccccn4)CC3)n2)n1", "relative growth recovery": -8.2}, {"smiles": "Cc1cnc(Nc2cccc(CC3CCN(C(=O)CO)CC3)n2)s1", "relative growth recovery": -16.9}, {"smiles": "Cn1cnc(S(=O)(=O)N2CCOC(c3cccc(Nc4ncc(CNC(=O)c5cccc(F)c5)s4)n3)C2)c1", "note": "(stereo not drawn)", "relative growth recovery": 13.5}, {"smiles": "O=[N+]([O-])c1ccc(S(=O)(=O)Nc2ccc(Cl)cn2)cc1", "relative growth recovery": -4.66}, {"smiles": "Cc1cnc(Nc2cccc(C3CN(C(=O)CN(CCC(C)C)c4ccccc4)CCO3)n2)s1", "note": "(stereo not drawn)", "relative growth recovery": -3.83}, {"smiles": "CCOc1ccccc1OCC(=O)Nc1ccc(S(=O)(=O)Nc2ncccn2)cc1", "relative growth recovery": -5.29}, {"smiles": "O=C(Nc1ccc(S(=O)(=O)Nc2ncccn2)cc1)c1ccccc1Br", "relative growth recovery": -3.06}, {"smiles": "Cc1ccnc(NS(=O)(=O)c2ccc(N3C(=O)c4ccccc4C3=O)cc2)n1", "relative growth recovery": -0.9}, {"smiles": "CC(C)c1ccc2[nH]c3nc(SCC(=O)Nc4ccc(F)cc4)nnc3c2c1", "relative growth recovery": -10.5}, {"smiles": "CN(CC(=O)N1CCC(c2cccc(Nc3ncc(-c4ccccc4)s3)n2)CC1)C(=O)OC(C)(C)C", "relative growth recovery": -3.15}]}]}
